Experimental data as given in the supplement of paper PMC11417369.
± gives the standard deviation of the averaged measurements. The list shows a part of the results.

tested on: PfAP2-LT AP2 domain (GST-tagged); test: gcPBM binding intensity (ln(normalized median fluorescence intensity)); higher = stronger DNA binding
In short: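 Binding of GST-tagged P. falciparum DNA-binding domains, expressed in E. coli and used at about 25 μg on average, was carried out for 1 h in 1× PBS containing 1% milk, 0.2 mg/ml BSA, 0.5% salmon testes DNA and 0.03% Triton X-100. The target was an Agilent 4 × 180k array of primer-extended double-stranded 36-bp intergenic genomic probes plus negative controls, read with Alexa488 anti-GST antibody at 488 nm. Binding intensity is the highest Masliner-normalised natural-log median intensity across replicate spots of either probe orientation.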

| Sequence | gcPBM binding intensity (ln) |
| --- | --- |
| TATGTATTAAATTTTACACACATGATTCTCTATATG [CACACA_site8720] | 9.09 ± 0.45 |
| TCAACAAATAAACTTTGTACATATATACAAAATATA [XGTACX_site4447] | 8.54 ± 0.47 |
| AATTTAAAAGCTTGTGGTACTTTTGCTCTTCCTTTG [XGTACX_site3148] | 8.85 ± 0.66 |
| ATACAAAAAAGAAGGACACACAGAAGTAACATGTTA [CACACA_site3074] | 9.27 ± 0.54 |
| TAACATGATATATAATGTACATATAAGATATTTATA [XGTACX_site4383] | 8.79 ± 0.45 |
| TTTAAAAAAAAAAAAAAAAATTAAATGAATTATTAA [CACACA_negctrl_site1121] | 7.81 ± 0.64 |
| ATGAATTATATATTATGTACATATAATTAAAATATA [XGTACX_site7140] | 8.52 ± 0.5 |
| CGTGGGAGCGGACACACACACACACCCATATATATA [CACACA_site4340] | 9.86 ± 0.41 |
| TTAAAAGATATTACATGTACATATTCAATATATGTA [XGTACX_site5895] | 8.62 ± 0.41 |
| ACAAATAAATAAAAATGTACAAATGAATACATCTTA [XGTACX_site3780] | 8.77 ± 0.54 |
| TTTTTTTAAAAAAACAAAAAAAAAAAAAATATAAAA [TGCATGCA_negctrl_site511] | 8.14 ± 0.48 |
| TACATCGGTATATAAACACACAACAAAAATGCTTAC [CACACA_site5983] | 9.14 ± 0.42 |
| AAAATAATTAAAAAAAGTACTCGTAATATAAATATA [XGTACX_site4967] | 9.1 ± 0.38 |
| AATAATGTATAATGATGTACAAAAAAGGAAGACATA [XGTACX_site2474] | 9.22 ± 0.33 |
| ATATTTTGTAATATTTGTACATATATTATACATATA [XGTACX_site963] | 8.84 ± 0.39 |
| TTTTTTTTGCGTACAGTGCAAATTTATTTACTATTC | 8.82 ± 0.54 |
| TATGAAAATTAAGTTTGTACACAAGTGGAAAAAAAA [XGTACX_site6129] | 8.69 ± 0.51 |
| TACATTTATAATAATACACACATAAATTTACATTTT [CACACA_site3463] | 8.86 ± 0.45 |
| AAATTAAATAAATTTACACACTAAAAGTTACCTATA [CACACA_site6623] | 8.62 ± 0.4 |
| TTTGTTATTTATTAGTGTACAAAAAAGCATTTCAAA [XGTACX_site8729] | 8.37 ± 0.42 |
| AAAAAAAAAAAAAAAAAAAAAAAAAAAAAAAAAAAT [CACACA_negctrl_site882] | 8.88 ± 0.28 |
| TATTCTATAAATATATTTTTTTAATTTTTTATTTTA [CACACA_negctrl_site307] | 8.15 ± 0.57 |
| AGGTGTATCATAAAATGTACATACATACATACATAA [XGTACX_site4479] | 8.95 ± 0.47 |

| Sequence | gcPBM binding intensity (ln) |
| --- | --- |
| TTGTAATTCATTCAAATATAAAATAAATAAATATGA [CACACA_negctrl_site349] | 8.29 ± 0.4 |
| AAAATGTGCTTTTCAGTGCAATTTTTTTTGTAATAA [GTGCAC_site9566] | 8.34 ± 0.35 |
| TATTATTATTTTTTATGTACTAACGACAAAAATATT [XGTACX_site252] | 8.48 ± 0.4 |
| TATGTAAAAAGAGAAAAAAAAAAGAACGATAATTTC [CACACA_negctrl_site946] | 8.49 ± 0.54 |
| ATATAAGAATTTAAGAGTACATTCACTTCAAATTTA [XGTACX_site2115] | 8.48 ± 0.5 |
| ATATAATATATTTTCACACATATTTTATGATGATAA [CACACA_site5614] | 8.68 ± 0.41 |
| ATAACATAACATAATACACACATATAAAAAAGAAAT [CACACA_site3028] | 9.37 ± 0.34 |
| AAATTTAATTTTATATCACACATTAAATTTTAATGG [CACACA_site4251] | 8.61 ± 0.36 |
| AAAAAAAAAAAAAAAGGTACAGTAAAAAATTCCTCT [XGTACX_site5947] | 8.47 ± 0.54 |
| TTTTAAAAAAATAAATAAATAGAAAAAAAAAATAAA [TGCATGCA_negctrl_site579] | 8.2 ± 0.52 |
| GGATATATTTTATGTACACACATATATAACGGATAT [CACACA_site4847] | 9.11 ± 0.34 |
| TATTATGACTTAAGTTGTACTGTTGAAAGAAGAAAA [XGTACX_site2985] | 8.48 ± 0.44 |
| ATAATCCTTAAACACACACACACACTAATAAATAAA [CACACA_site8052] | 10.1 ± 0.25 |
| TTGTTTCCTTAATATTCACACACATATATATAATAT [CACACA_site8553] | 9.23 ± 0.35 |
| AAAAGTTATAGACACACACACATATAAATATAGATT [CACACA_site6617] | 9.57 ± 0.3 |
| ATAAAAATTAAAGAATGTACACATATAATATATGTA [XGTACX_site8735] | 8.65 ± 0.45 |
| TATAAATGTATACAAGTGCATATTATTCACACATAA | 8.84 ± 0.45 |
| GTATTATACCATAATGCATGTTAACTTCAAAAGAAA [TGCATGCA_site839] | 8.67 ± 0.48 |
| GAAATTATTATATAAACACACATTTATTTTATTTTA [CACACA_site1957] | 8.56 ± 0.44 |
| CGTATAAATAAATACACACACATATAAATATGTAAA [CACACA_site6236] | 9.3 ± 0.38 |
| TAATATATTGTAGATGCATGCATTAACTATTACAAA [TGCATGCA_site190] | 8.89 ± 0.4 |
| TATCAATGGAAAATATATATTTGTATATATGTAATA [XGTACX_negctrl_site257] | 8.55 ± 0.49 |
| TATAAAAATAATATTACACACATGTAAAATGTCGGT [CACACA_site3264] | 9.03 ± 0.42 |

| Sequence | gcPBM binding intensity (ln) |
| --- | --- |
| AGCATTTATGAAAAATGTACACACATCAAATGCTTA [XGTACX_site8749] | 8.91 ± 0.42 |
| ACACATGACATCCGTTGTACAATCATCATAAAAATG [XGTACX_site5397] | 9.01 ± 0.41 |
| TACGTGAAATTATATACACACATAAATATGTCTGTA [CACACA_site3122] | 8.99 ± 0.39 |
| AAGCTACACATAGATTATTATTAATTTAATGTATAT [CACACA_negctrl_site548] | 8.56 ± 0.38 |
| ACAAGCTTTCATAAGGTGCAATGATTTAACAAAAAA [GTGCAC_site9726] | 8.53 ± 0.47 |
| AATTATTAGCGTGGTGTGCACAAAATTATGGACACA | 9.2 ± 0.51 |
| TATATATTATACACGTGTACACATTATAACAATATA [XGTACX_site7799] | 8.98 ± 0.38 |
| TTTCCCTTAAATTAATGTACATAAATTGAAAATACC [XGTACX_site1602] | 8.44 ± 0.35 |
| TAAAATTTTTTTGTTTGTACATATATATATATAATA [XGTACX_site5609] | 8.52 ± 0.39 |
| AAAAAAATAAATAAATACATACATATATATATGTAT [GTGCAC_negctrl_site510] | 8.69 ± 0.47 |
| AAAAAAAAAAAACACACACACAAAAAAAAATATATA [CACACA_site1105] | 9.85 ± 0.54 |
| TTGCCCCAGGAGTTCACACACATAATAGATTGTCAC [CACACA_site726] | 9.36 ± 0.4 |
| AGCAACCCCCTAGCTACACACATATAGATATATATA [CACACA_site951] | 9.6 ± 0.2 |
| TTTCTTATCAACCTTTTTTTTTTTTTTTTATTCTTA [TGCATGCA_negctrl_site162] | 8.46 ± 0.49 |
| AATTTAATTTTTTCGTGTACTTATATAGGAGGTTTT [XGTACX_site8310] | 8.74 ± 0.47 |
| CAATTAAAGATATGAACACACATGTGAACTTTCTAT [CACACA_site7796] | 9 ± 0.4 |
| AGAAGAAATATGTAAAAAATTTTATATTCACACACA [GTGCAC_negctrl_site441] | 8.97 ± 0.36 |
| CCCATATTATAGGTGTGTACATAAAAGTATATATAA [XGTACX_site3629] | 9.16 ± 0.45 |
| TGTTCTTATACTAATAGTACTTTTAGGTACTATAAA [XGTACX_site2954] | 8.45 ± 0.47 |
| TGTAGACATTAATGTAGTACAATATATATATATATT [XGTACX_site8608] | 9.23 ± 0.62 |
| TTTATATATAATGTTGCATGTCAAATTTGTATATGG [TGCATGCA_site246] | 8.79 ± 0.42 |
| ATATTTTTCCAACATCGTACATTATGAGTCAAAATT [XGTACX_site993] | 8.65 ± 0.51 |
| CCATAAAAAGGTACATGTACAAAAAGCAAAAATATG [XGTACX_site5543] | 9.18 ± 0.47 |

| Sequence | gcPBM binding intensity (ln) |
| --- | --- |
| AATGTAAAACTAATATGTACATATCTCTAAAGAAAT [XGTACX_site8429] | 8.88 ± 0.42 |
| CGTACTAACATAAAGACACACACCACATATAATAAA [CACACA_site3603] | 9.56 ± 0.3 |
| ATTGTCTTCCTTCTGGTGCGATGTATAGGTAAAGAT | 8.93 ± 0.25 |
| AACTCATCTTATAATTGTACATATTTATAAAAAGTA [XGTACX_site6522] | 8.43 ± 0.42 |
| TGTAGAAATGGGTGCACACACATATATAATATATAT [CACACA_site2507] | 9.34 ± 0.42 |
| AAAAAAAAAAAAAAAAAAAAAAAAAAAAAATATATA [GTGCAC_negctrl_site6] | 8.8 ± 0.21 |
| TTAGGGATGCTGAAATGTACACATTTAAATTATATA [XGTACX_site3000] | 8.66 ± 0.49 |
| GTATATATATATATATATATATATATATATATATAT [CACACA_negctrl_site609] | 9.63 ± 0.042 |
| TCTCCATCTTATGAGACATGCACTTTTTATTTAATA [TGCATGCA_site121] | 8.78 ± 0.46 |
| AAAAAATAAAAAAGGTGGTCATGTCACAAATACTTT [XGTACX_site7454] | 9.02 ± 0.48 |
| TGTGTATACTTGTGTATACCAAATTAAAGACGCTTT [CACACA_negctrl_site1359] | 8.76 ± 0.38 |
| TAAAAGTGATATGTTCGTACGTATTTATATGTAATA [XGTACX_site211] | 8.7 ± 0.41 |
| TTTTTCTTTTTTTGGGGTACAGGGAAATCTATATTT [XGTACX_site7025] | 8.8 ± 0.28 |
| TCTTAATTTTTGAAGGTACACACTAATATATTAAAT [CACACA_site1191] | 8.57 ± 0.42 |
| TTGTGTAAATGTTAAGTGCATTTGGTAAAATATAAA [GTGCAC_site9699] | 8.66 ± 0.47 |
| ATGATATGCAATTTAGTGCATAACAAAATTGGTATA | 8.79 ± 0.5 |
| AAAAAAAAAAAAAAAACACACATACCCATATATTTT [CACACA_site6013] | 9.06 ± 0.42 |
| AAAAAGAACACAAAAAGTACAAAAATTATAATGATA [XGTACX_site2676] | 8.89 ± 0.45 |
| AAACTTCAAAAAGAGCACTTGAATTTTTTTTTTTTT [TGCATGCA_negctrl_site133] | 8.38 ± 0.4 |
| AATATGTTTTACGTCTCACACATATAGGTTTATATT [CACACA_site4713] | 9.11 ± 0.37 |
